# Reference: US20230143604A1, “QW DOSING OF GIP RECEPTOR AGONIST PEPTIDE COMPOUNDS AND USES THEREOF” (TAKEDA PHARMACEUTICAL COMPANY LIMITED, priority 2020, published 2023)
# Part of at least one peptide drawing is inferred or uncertain, most often the ends. Some results were stated once for a whole list of compounds, not compound by compound. Starred links: 1 amine or outer side, 2 acyl side, 3 side chain; linkers in the order of their positions; H or OH if unused. Non-standard residues stand in square brackets, D forms with d. Residues, ends and D or L forms follow the SMILES beside them. Groups on a side chain read outwards from the residue. *: point of attachment. C20 diacid = O=C(O)CCCCCCCCCCCCCCCCCCC(=O)*; C18 diacid = O=C(O)CCCCCCCCCCCCCCCCC(=O)*; γGlu = O=C(O)[C@H](CCC(=O)[*:2])N[*:1]; NMeY = CN[C@@H](Cc1ccc(O)cc1)C(=O)O; AEEA = NCCOCCOCC(=O)O; Aib = CC(C)(N)C(=O)O
# Key:
# C57BL/6J mice = experiment: Oral glucose tolerance test (OGTT); type: in vivo; details: 24 hours before glucose loading
# Procedure, shortened: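 Peptide or vehicle given s.c. at 0.1, 0.3, 3 or 10 nmol/kg (peptide-dependent), 24 h before oral 50% dextrose at 5 ml/kg unless stated otherwise. Blood glucose read at 0, 15, 30 and 60 min. % inhibition = (1−(AUC cpd−AUC naïve)/(AUC veh−AUC naïve))×100.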
# female beagle dogs = experiment: PYY-1119-induced vomiting in dogs; type: in vivo; details: 3 nmol/kg s.c., 72 hours post-dose (lower line)
# male ferrets = type: in vivo
# Method: 1. Effect of subcutaneously administered GIP receptor agonist peptide in morphine-induced acute emetic model.
# To evaluate the antiemetic effect, the GIP receptor agonist peptides other than natural human GIP are subcutaneously administered into male ferrets 24 hrs before morphine administration. Up to 60 minutes after morphine administration, the condition of the ferrets is monitored to record the frequencies and time points of abdominal contraction motions, vomiting behaviors, licking with the tongue, and fidgety behavior occurring. GIP receptor agonist peptide compounds of the present disclosure dosed at 0.3-10 nmol/kg attenuated the morphine (0.6 mg/kg, s.c.)-induced emesis in the ferrets.
# GIP receptor agonist peptides are dissolved with a vehicle (0.09 w/v % tween 80/10% DMSO/saline), respectively, to prepare test solutions. […] of the test solutions and the vehicle are subcutaneously administered to ferrets (4 in each group), respectively. At the time of each of 4 or 24 hours after administration, 0.6 mg/kg of morphine is subcutaneously administered.
# [1] = Solubility in phosphate buffer pH 7.4; details: 200 mM phosphate buffer pH 7.4
# Method: Solubility of the GIPR peptides may be determined by dissolution in a phosphate buffer followed by quantitation using liquid chromatography, for example, High Performance Liquid Chromatogry (HPLC). An illustrative method is provided. For determination of the solubility of the GIPr agonist peptides, 3 mg of peptides are weighted out in a small glass vial. 100 μL of 200 mM Phosphate buffer pH 7.4 are added and the vial is sonicated/votexed as necessary for a maximum of 1 min. […] If insoluble material is observed in the tube the addition of 100 μL of buffer and mixing is repeated until complete dissolution.
# 3 mg of peptides are weighted out in a small glass vial. 100 uL of 200 mM Phosphate buffer pH 7.4 are added and the vial is sonicated/votexed as necessary for a maximum of 1 min. […] If insoluble material is observed in the tube the addition of 100 uL of buffer and mixing is repeated until complete dissolution.
# human GLP-1R = target: T1, human GLP-1R (Homo sapiens, UniProt P43220); experiment: Human GLP1R agonist activity, intracellular cAMP accumulation; type: cell-based; details: read-out: Human GLP1R cAMP EC50, HEK293T, HEK-293T cells overexpressing human GLP-1R, 1 hr
# T1 construct: HEK-293T cells overexpressing full-length human GLP-1R; FLAG (N); host or cells: HEK-293T
# T1 sequence (P43220 24-463): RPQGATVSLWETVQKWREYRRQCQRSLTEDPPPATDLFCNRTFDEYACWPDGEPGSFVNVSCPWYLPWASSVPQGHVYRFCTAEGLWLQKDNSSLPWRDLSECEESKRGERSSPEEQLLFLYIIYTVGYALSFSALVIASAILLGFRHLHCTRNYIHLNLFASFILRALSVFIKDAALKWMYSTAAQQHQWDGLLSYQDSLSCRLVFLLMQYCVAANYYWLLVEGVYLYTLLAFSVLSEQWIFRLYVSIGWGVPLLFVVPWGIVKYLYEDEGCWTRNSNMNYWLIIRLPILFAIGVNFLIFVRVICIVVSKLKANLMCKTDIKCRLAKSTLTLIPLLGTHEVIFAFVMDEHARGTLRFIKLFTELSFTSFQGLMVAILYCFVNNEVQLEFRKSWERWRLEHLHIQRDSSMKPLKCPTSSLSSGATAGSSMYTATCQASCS
# Procedure, shortened: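 Frozen assay-ready cells washed and resuspended at 4×10^5 cells/mL in Krebs Ringer buffer, then incubated with compound 1 hr at room temperature in the dark. cAMP read by HTRF (anti-cAMP antibody, d2-cAMP tracer). Normalised to 1 nm GLP-1 (100%) and DMSO (0%).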
smiles,measurement,setting,value
"CC[C@H](C)[C@H](NC(=O)[C@H](Cc1ccccc1)NC(=O)[C@@H](NC(=O)CNC(=O)[C@H](CCC(=O)O)NC(=O)C(C)(C)NC(=O)[C@H](Cc1ccc(O)cc1)NC)[C@@H](C)O)C(=O)N[C@@H](CO)C(=O)N[C@@H](CC(=O)O)C(=O)N[C@@H](Cc1ccc(O)cc1)C(=O)N[C@@H](CO)C(=O)N[C@H](C(=O)NC(C)(C)C(=O)N[C@@H](CC(C)C)C(=O)N[C@@H](CC(=O)O)C(=O)N[C@@H](CCCNC(=N)N)C(=O)NC(C)(C)C(=O)N[C@@H](C)C(=O)N[C@@H](CCC(N)=O)C(=O)NC(C)(C)C(=O)N[C@@H](CCCCNC(=O)COCCOCCNC(=O)COCCOCCNC(=O)CC[C@H](NC(=O)CC[C@H](NC(=O)CCCCCCCCCCCCCCCCC(=O)O)C(=O)O)C(=O)O)C(=O)N[C@@H](Cc1ccccc1)C(=O)N[C@H](C(=O)N[C@@H](CC(N)=O)C(=O)N[C@@H](Cc1c[nH]c2ccccc12)C(=O)N[C@@H](CC(C)C)C(=O)N[C@@H](CC(C)C)C(=O)N[C@@H](C)C(=O)N[C@@H](CCC(N)=O)C(=O)N[C@@H](CCCNC(=N)N)C(=O)NCC(=O)O)C(C)C)[C@@H](C)CC [Compound 72, Me-Y-Aib-E-G-T-F-I-S-D-Y-S-I-Aib-L-D-R-Aib-A-Q-Aib-Km-F-V-N-W-L-L-A-Q-R-G-OH] (H-[NMeY][Aib]EGTFISDYSI[Aib]LDR[Aib]AQ[Aib]K([AEEA-AEEA-γGlu-γGlu-C18 diacid])FVNWLLAQRG-OH)",Oral Glucose Tolerance Test Percent decrease in blood glucose AUC (%) over 60 mins,C57BL/6J mice; 0.1 nmol/kg s.c.,73%
same,Oral Glucose Tolerance Test Percent decrease in blood glucose AUC (%) over 60 mins,C57BL/6J mice; 0.3 nmol/kg s.c.,66%
same,Oral Glucose Tolerance Test Percent decrease in blood glucose AUC (%) over 60 mins,C57BL/6J mice; 3 nmol/kg s.c.,38% (3 nmol/kg)
same,Inhibition (%) of PYY-1119-induced emetic event,female beagle dogs,97% (3 nmol/kg)
same,% inhibition of emetic events at doses (nmol/kg) and timepoints shown in ferret morphine model,"male ferrets; 24 hrs, 1 nmol/kg s.c.",24 hrs: 95% (1 nmol/kg);
same,effect on morphine-induced emesis in ferrets (in words),"male ferrets; morphine 0.6 mg/kg s.c., peptides dosed at 0.3-10 nmol/kg s.c.",effective in completely inhibiting the frequency of emesis
CC[C@H](C)[C@H](NC(=O)[C@H](CO)NC(=O)[C@H](Cc1ccc(O)cc1)NC(=O)[C@H](CC(=O)O)NC(=O)[C@H](CO)NC(=O)[C@@H](NC(=O)[C@H](Cc1ccccc1)NC(=O)[C@@H](NC(=O)CNC(=O)[C@H](CCC(=O)O)NC(=O)C(C)(C)NC(=O)[C@H](Cc1ccc(O)cc1)NC)[C@@H](C)O)[C@@H](C)CC)C(=O)N[C@@H](C)C(=O)N[C@@H](CCCCNC(=O)CNC(=O)CNC(=O)CNC(=O)CNC(=O)CNC(=O)CCCCCCCCCCCCCCCCCCC(=O)O)C(=O)N[C@@H](CC(=O)O)C(=O)N[C@@H](CCCNC(=N)N)C(=O)NC(C)(C)C(=O)N[C@@H](C)C(=O)N[C@@H](CCC(N)=O)C(=O)NC(C)(C)C(=O)N[C@@H](CC(N)=O)C(=O)N[C@@H](Cc1ccccc1)C(=O)N[C@H](C(=O)N[C@@H](CC(N)=O)C(=O)N[C@@H](Cc1c[nH]c2ccccc12)C(=O)N[C@@H](CC(C)C)C(=O)N[C@@H](CC(C)C)C(=O)N[C@@H](C)C(=O)N[C@@H](CCC(N)=O)C(=O)N[C@@H](CO)C(=O)N1CCC[C@H]1C(=O)N[C@@H](CO)C(=O)N[C@@H](CO)C(=O)NCC(=O)N[C@@H](C)C(=O)N1CCC[C@H]1C(=O)N1CCC[C@H]1C(=O)N1CCC[C@H]1C(=O)N[C@@H](CO)C(=O)O)C(C)C [Compound 40],solubility in phosphate buffer at pH 7.4,[1],≥ 15 mg/mL
CC[C@H](C)[C@H](NC(=O)[C@H](CO)NC(=O)[C@H](Cc1ccc(O)cc1)NC(=O)[C@H](CC(=O)O)NC(=O)[C@H](CO)NC(=O)[C@@H](NC(=O)[C@H](Cc1ccccc1)NC(=O)[C@@H](NC(=O)CNC(=O)[C@H](CCC(=O)O)NC(=O)C(C)(C)NC(=O)[C@H](Cc1ccc(O)cc1)NC)[C@@H](C)O)[C@@H](C)CC)C(=O)N[C@@H](C)C(=O)N[C@@H](CC(C)C)C(=O)N[C@@H](CC(=O)O)C(=O)N[C@@H](CCCNC(=N)N)C(=O)NC(C)(C)C(=O)N[C@@H](CCCCNC(=O)COCCOCCNC(=O)COCCOCCNC(=O)CC[C@H](NC(=O)CC[C@H](NC(=O)CCCCCCCCCCCCCCCCCCC(=O)O)C(=O)O)C(=O)O)C(=O)N[C@@H](CCC(N)=O)C(=O)NC(C)(C)C(=O)N[C@@H](CC(N)=O)C(=O)N[C@@H](Cc1ccccc1)C(=O)N[C@H](C(=O)N[C@@H](CC(N)=O)C(=O)N[C@@H](Cc1c[nH]c2ccccc12)C(=O)N[C@@H](CC(C)C)C(=O)N[C@@H](CC(C)C)C(=O)N[C@@H](C)C(=O)N[C@@H](CCC(N)=O)C(=O)N[C@@H](CO)C(=O)N1CCC[C@H]1C(=O)N[C@@H](CO)C(=O)N[C@@H](CO)C(=O)NCC(=O)N[C@@H](C)C(=O)N1CCC[C@H]1C(=O)N1CCC[C@H]1C(=O)N1CCC[C@H]1C(=O)N[C@@H](CO)C(N)=O)C(C)C [Compound 68] (H-[NMeY][Aib]EGTFISDYSIALDR[Aib]K([AEEA-AEEA-γGlu-γGlu-C20 diacid])Q[Aib]NFVNWLLAQSPSSGAPPPS-NH2),EC50,human GLP-1R,> 1000 nM
same,pH 7.4 Phosphate Buffer - Solubility,[1],≥ 30 mg/mL
CC[C@H](C)[C@H](NC(=O)[C@H](CO)NC(=O)[C@H](Cc1ccc(O)cc1)NC(=O)[C@H](CC(=O)O)NC(=O)[C@H](CO)NC(=O)[C@@H](NC(=O)[C@H](Cc1ccccc1)NC(=O)[C@@H](NC(=O)CNC(=O)[C@H](CCC(=O)O)NC(=O)C(C)(C)NC(=O)[C@H](Cc1ccc(O)cc1)NC)[C@@H](C)O)[C@@H](C)CC)C(=O)N[C@@H](C)C(=O)N[C@@H](CC(C)C)C(=O)N[C@@H](CC(=O)O)C(=O)N[C@@H](CCCNC(=N)N)C(=O)NC(C)(C)C(=O)N[C@@H](CCCCNC(=O)COCCOCCNC(=O)COCCOCCNC(=O)CC[C@H](NC(=O)CC[C@H](NC(=O)CCCCCCCCCCCCCCCCCCC(=O)O)C(=O)O)C(=O)O)C(=O)N[C@@H](CCC(N)=O)C(=O)NC(C)(C)C(=O)N[C@@H](CC(N)=O)C(=O)N[C@@H](Cc1ccccc1)C(=O)N[C@H](C(=O)N[C@@H](CC(N)=O)C(=O)N[C@@H](Cc1c[nH]c2ccccc12)C(=O)N[C@@H](CC(C)C)C(=O)N[C@@H](CC(C)C)C(=O)N[C@@H](C)C(=O)N[C@@H](CCC(N)=O)C(=O)N[C@@H](CO)C(=O)N1CCC[C@H]1C(=O)N[C@@H](CO)C(=O)N[C@@H](CO)C(=O)NCC(=O)N[C@@H](C)C(=O)N1CCC[C@H]1C(=O)N1CCC[C@H]1C(=O)N1CCC[C@H]1C(=O)N[C@@H](CO)C(N)=O)C(C)C [Compound 99] (H-[NMeY][Aib]EGTFISDYSIALDR[Aib]K([AEEA-AEEA-γGlu-γGlu-C20 diacid])Q[Aib]NFVNWLLAQSPSSGAPPPS-NH2),Oral Glucose Tolerance Test Percent decrease in blood glucose AUC (%) over 60 mins,C57BL/6J mice; 3 nmol/kg s.c.,35% (3 nmol/kg)
same,solubility in phosphate buffer at pH 7.4,[1],≥ 15 mg/mL
